Data on nine sequences can be found in PMC5700166.

The list shows a part of the results, in another mix than the full data. The list includes weakly bound sequences.

For the test, the target named is T1, GST-Ap-NF-kB RHD (UniProt A0A913YAJ5).
T1 sequence: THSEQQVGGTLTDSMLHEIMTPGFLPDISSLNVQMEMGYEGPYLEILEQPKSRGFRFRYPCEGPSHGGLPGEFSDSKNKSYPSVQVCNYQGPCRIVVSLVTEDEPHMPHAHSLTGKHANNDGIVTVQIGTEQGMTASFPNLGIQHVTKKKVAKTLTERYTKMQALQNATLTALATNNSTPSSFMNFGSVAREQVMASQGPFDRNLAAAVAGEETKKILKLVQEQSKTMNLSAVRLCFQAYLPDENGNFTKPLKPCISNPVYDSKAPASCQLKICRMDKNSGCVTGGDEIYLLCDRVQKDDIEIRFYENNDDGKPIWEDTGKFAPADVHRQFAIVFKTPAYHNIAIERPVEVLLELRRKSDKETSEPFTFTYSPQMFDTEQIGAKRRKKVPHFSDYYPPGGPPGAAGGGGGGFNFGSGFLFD
The test is described as follows: protein-binding microarray (PBM). The conditions noted are these: PBM: ~300 nM protein, 6 mM HEPES pH 7.8, 80 mM KCl, 0.5 mM EDTA, 0.5 mM EGTA, 6% glycerol, 35 ng/ul poly-dIdC, 1% milk, 1 h, room temperature; Ap Aiptasia and Nv Nematostella (sea anemones) / Co Capsaspora / Aq Amphimedon (sponge) / Dm Drosophila / Hu human; RHD is the Rel homology domain; high values mean tight binding; most listed sequences are background and not binding sites; double strand, one strand shown.
In turn, “CCGATTAACATCAGGGGAACCTATGATGTTAATCGGGTCTTGATTCGCTTGACGCTGCTG” yielded a binding signal of 6.11 z-score.

In the case of “CCGATTAACATCACCCTTTTCCCTGATGTTAATCGGGTCTTGATTCGCTTGACGCTGCTG”, the binding signal turned out to be 2.88 z-score. As to “CCGATTAACATCACAACGACCCCTGATGTTAATCGGGTCTTGATTCGCTTGACGCTGCTG”, the binding signal amounted to 2.27 z-score.

As to “CCGATTAACATCAGGGGGATACCTGATGTTAATCGGGTCTTGATTCGCTTGACGCTGCTG”, the binding signal was 7.92 z-score.

Consider “CCGATTAACATCAAAGAAGCCCCTGATGTTAATCGGGTCTTGATTCGCTTGACGCTGCTG”, for which the binding signal turned out to be 4.38 z-score. “CCGATTAACATCAAATTACCCCCTGATGTTAATCGGGTCTTGATTCGCTTGACGCTGCTG” gave a binding signal of 6.8 z-score. The result for “CCGATTAACATCAGGAAAAAAACTGATGTTAATCGGGTCTTGATTCGCTTGACGCTGCTG” reads -0.855 z-score; that for “CCGATTAACATCAATAACCCCCCTGATGTTAATCGGGTCTTGATTCGCTTGACGCTGCTG”, 6.33 z-score. In the case of “CCGATTAACATCAAGCCCCCCCATGATGTTAATCGGGTCTTGATTCGCTTGACGCTGCTG”, the binding signal was found to be 4.83 z-score.
